# Laboratory results published in the supplement of paper PMC7826260.
# The other results are listed elsewhere or left out. The data describe in vitro nicking of single-stranded DNA by Rep domains (1 h at 37 °C, 3 µM enzyme); the outer parts of the 90-letter strands are left off. Numbers give uncut DNA relative to the enzyme-free pool, as log2; strong cutting gives strongly negative numbers. There is no active / inactive call. Shares of all reads are compared; where an enzyme cuts many sequences, the uncut ones exceed 0.
# How the values were obtained:
# Test in all cases: uncleaved DNA left, log2 of reads against the no-enzyme library (log2 ratio); higher = less cleavage (more negative = more Rep cleavage of the k-mer); sequences stand for … in CTCGTCCG…ACCGGAGA
# [1] = system: T1, Rep nickase domain of Muscovy duck circovirus
# T1 sequence (residues 1-111 of Rep, tag left off): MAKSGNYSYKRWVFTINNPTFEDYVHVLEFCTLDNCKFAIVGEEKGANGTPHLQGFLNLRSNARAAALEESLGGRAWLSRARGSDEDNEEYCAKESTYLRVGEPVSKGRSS
# Method: (§1)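 A pool of 90-nt single-stranded DNAs with seven random bases just before the constant AC of the nick site (name = the seven bases) was cut by 3 µM recombinant His6-SUMO-tagged Rep nickase domain (300 nM DNA, 50 mM HEPES pH 8.0, 50 mM NaCl, 1 mM MnCl2, 1 h, 37 °C, three replicates). Uncut DNA was amplified and sequenced.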
# [2] = system: T2, Rep nickase domain of banana bunchy top virus
# T2 sequence (residues 1-94 of Rep, tag left off): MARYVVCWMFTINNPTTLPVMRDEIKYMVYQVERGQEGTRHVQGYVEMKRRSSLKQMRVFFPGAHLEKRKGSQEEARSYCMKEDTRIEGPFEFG
# Method: as §1
# [3] = system: T3, Rep nickase domain of cabbage leaf curl virus
# T3 sequence (residues 1-116 of Rep, tag left off): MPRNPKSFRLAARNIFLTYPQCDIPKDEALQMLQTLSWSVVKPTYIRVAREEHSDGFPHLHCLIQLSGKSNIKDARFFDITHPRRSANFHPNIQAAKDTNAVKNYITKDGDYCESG
# Method: as §1
# [4] = system: T4, Rep nickase domain of chickpea chlorotic dwarf virus
# T4 sequence (residues 1-124 of Rep, tag left off): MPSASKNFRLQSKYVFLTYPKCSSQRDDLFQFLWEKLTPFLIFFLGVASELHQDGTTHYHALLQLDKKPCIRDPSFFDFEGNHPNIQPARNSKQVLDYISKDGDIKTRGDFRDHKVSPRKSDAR
# Method: as §1
# [5] = system: T5, Rep nickase domain of faba bean necrotic yellows virus
# T5 sequence (residues 1-98 of Rep, tag left off): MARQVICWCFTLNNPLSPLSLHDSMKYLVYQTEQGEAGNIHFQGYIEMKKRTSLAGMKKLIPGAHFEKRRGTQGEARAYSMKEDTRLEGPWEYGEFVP
# Method: as §1
# [6] = system: T6, Rep nickase domain of maize striate mosaic virus
# T6 sequence (residues 1-117 of Rep, tag left off): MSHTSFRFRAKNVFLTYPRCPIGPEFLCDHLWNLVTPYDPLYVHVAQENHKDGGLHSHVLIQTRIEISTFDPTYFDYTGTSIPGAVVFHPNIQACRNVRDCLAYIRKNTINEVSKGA
# Method: as §1
# [7] = system: T7, Rep nickase domain of porcine circovirus 2
# T7 sequence (residues 2-116 of Rep, tag left off): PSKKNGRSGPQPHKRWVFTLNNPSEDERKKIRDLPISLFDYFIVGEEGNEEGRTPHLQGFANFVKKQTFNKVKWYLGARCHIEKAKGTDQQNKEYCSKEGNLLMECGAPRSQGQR
# Method: as §1
# [8] = system: T8, Rep nickase domain of tomato yellow leaf curl virus
# T8 sequence (residues 1-136 of Rep, tag left off): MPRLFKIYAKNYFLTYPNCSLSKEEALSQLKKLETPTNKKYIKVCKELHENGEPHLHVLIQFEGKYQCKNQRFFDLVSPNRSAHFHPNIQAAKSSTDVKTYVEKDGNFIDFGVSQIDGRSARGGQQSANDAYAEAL
# Method: as §1
# [9] = system: T9, Rep nickase domain of wheat dwarf virus
# T9 sequence (residues 1-137 of Rep, tag left off): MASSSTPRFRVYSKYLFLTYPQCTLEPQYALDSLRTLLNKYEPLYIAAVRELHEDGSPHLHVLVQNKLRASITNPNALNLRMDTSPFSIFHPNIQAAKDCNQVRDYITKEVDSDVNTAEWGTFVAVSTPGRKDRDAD
# Method: as §1
Sequence,uncleaved DNA left (log2) [1],uncleaved DNA left (log2) [2],uncleaved DNA left (log2) [3],uncleaved DNA left (log2) [4],uncleaved DNA left (log2) [5],uncleaved DNA left (log2) [6],uncleaved DNA left (log2) [7],uncleaved DNA left (log2) [8],uncleaved DNA left (log2) [9]
CTGGCGT,-0.0806,-0.157,-0.772,-0.652,-0.0965,-0.771,-0.0705,-0.128,-0.214
GGACTTT,-0.0953,-0.0907,0.737,1.76,-0.124,2.06,-0.0112,-0.0654,0.0466
ACGATTA,0.0759,0.00279,-0.185,-1.15,0.134,-0.269,0.122,-0.0258,0.111
GCACAAT,0.027,0.0935,0.187,0.0576,0.114,0.234,-0.0826,0.147,0.124
TGTAAAT,0.106,0.253,0.28,0.352,0.238,0.698,-0.23,0.242,0.326
AAGTTAT,-0.269,-0.462,0.112,0.486,-0.264,1.31,-3.53,-0.19,-0.00829
CGAAAGG,-0.0178,0.0958,0.229,0.922,0.165,0.35,0.12,0.106,0.106
TAGATTG,-0.0132,-0.0777,-0.0171,0.657,-0.0665,0.936,-0.0711,0.0184,0.0338
TCCACTG,0.0161,-0.0251,-0.0714,0.371,-0.118,1.05,-0.0157,0.00457,0.0366
GGTGCAT,-0.0399,0.0974,0.847,1.99,0.0758,2.28,0.182,0.0193,0.182
GCTCGGT,0.00115,0.0267,0.244,0.577,-0.0828,0.585,0.0489,0.00363,0.0608
AGCGCGA,0.055,-0.0472,-0.285,-0.0112,0.0182,-0.0812,0.0413,-0.118,-0.0594
CTACCAG,-0.215,-0.119,-0.958,-1.58,-0.138,-1.04,-0.359,-0.0629,-0.179
AGCAAAC,-0.065,0.0666,0.0373,0.0516,0.0555,-0.0447,-0.0703,-0.0232,0.0718
CGGTACC,0.0112,0.0206,0.291,0.422,0.0477,0.819,-0.231,0.105,0.098
CACGCTG,-0.0816,-0.175,0.236,1.32,-0.127,1.5,0.0227,-0.317,-0.0847

Sequence,uncleaved DNA left (log2) [1],uncleaved DNA left (log2) [2],uncleaved DNA left (log2) [3],uncleaved DNA left (log2) [4],uncleaved DNA left (log2) [5],uncleaved DNA left (log2) [6],uncleaved DNA left (log2) [7],uncleaved DNA left (log2) [8],uncleaved DNA left (log2) [9]
CGGACCA,-0.00884,0.0321,0.476,0.989,-0.126,1.32,0.0214,0.0103,0.115
CCTTTCG,0.0508,0.0877,-0.715,0.539,0.0533,-0.573,0.18,0.0919,0.106
ATGTCTT,-2.31,-1.41,-0.153,-2.35,-0.934,-0.388,-3.26,-0.0228,-0.0764
ATCCGAC,0.031,-0.125,-0.036,0.0403,0.0209,-0.696,-0.0374,-0.129,-0.0838
TACTAAT,-3.79,-3.23,-3.14,-3.25,-0.414,-0.769,-4.08,-0.0418,-0.668
CGCTCAG,0.0415,0.0192,-0.485,-0.466,-0.061,-0.763,0.0608,-0.0592,-0.0219
TTTGGGC,-0.0425,-0.0752,-0.0851,-0.259,-0.0565,-0.696,0.0771,-0.0431,-0.0623
TTGTCTT,-2.82,-1.17,0.0316,-1.87,-0.904,-0.38,-3.04,0.122,-0.053
TGATTGG,0.0985,-0.00959,-0.39,-0.477,0.0287,-1.13,0.117,0.0153,-0.0505
AACGACT,0.00633,0.112,0.0154,0.313,0.0859,1.62,0.0222,-0.0512,0.0552
TGGGCCC,0.0501,0.129,0.719,1.52,0.0861,1.9,0.279,0.197,0.0794
ATTCACA,-0.0612,-0.0157,-0.0793,-1.58,0.00761,-0.751,-0.209,0.0871,0.0137
ACATTCC,-0.0592,0.00612,0.183,0.563,0.0592,0.0454,0.201,-0.0279,0.0569
GCAACAC,0.0177,-0.0055,0.0251,0.0785,0.0351,-0.108,0.0376,0.0392,0.00379
GGAAAAG,0.0968,0.151,0.326,0.831,0.0563,0.0424,0.272,0.116,0.229
